According to the supplement of paper PMC12632987:
Over roughly 1,800 sequences, “median log2 fold change of GCK-ALFA target abundance (FLAG IP / Myc IP barcode read proportion)” has its median near 0.14; the lowest 2% begin near -0.84. The list shows a part of the results.

B1: traf2_out_17_162_1482 (protein)
chain: GELKERLEELEKELEELKKRLEELEKKLEKLDEMSKEELTDLLVEASELRRRALELAEEIRELEPEIGKEKAEKLRKEALEIAERLQRIANKIYKKLEEK
B2: traf2_out_17_162_1549 (protein)
chain: GELEERKKELEERLKELEKKAKELEKKLPDLPKLSKEELTDLLVEASEARREARLLAEEIRELEEEIGEEEAEELRERAEEVAEKLQRIANEIYKELEKK
B3: traf2_out_17_162_1556 (protein)
chain: EELEEELEELEEELEELEEELERLKEKLKNLETLSKEELTDLLVEASEKRREALELALRLEELREEIGEERAEELIERAEELAEEFQRIANEIYKELLKK
B4: traf2_out_18_3_1925 (protein)
chain: SEEELKKVSERIDEIIDEAEAKAREALDRIRARHPEAAAEVDRLEALLDAGAGPFGILEELAELARRLGDEELAKELEEFLKKKRKELSKLVEEYLELRK
B5: traf2_out_17_178_1740 (protein)
chain: SKEEIRKKIAELADEKLDVAREAADELRAIAEAEGILTPELRARLDLVARTSNRYAFEEVANELIALSPDKEKVQALLEETTAKLTELDKKIQAAVDKLE
B6: traf2_out_11_104_636 (protein)
chain: LTREQAREFNDFAMEKEDEAKAVAAALAARLRALGEDEAAARVEAALAHPGAGISTFKNLLEDLRPTLSPEAAAAADEAIEKLEELQKEVSEKLNELEKK
B7: traf2_out_11_155_756 (protein)
chain: EEKLKLLNEMNNKVNDVFDEAREKALELAKEAAEKHPEHKEEIEKKIEENKHFSAKSFILSLIRLFKELGLEEEAEKLEKLLEETQKKANEIVIETEKKL
B8: traf2_out_11_169_831 (protein)
chain: EEAEKNRKINEKALELEDEAKEKLKEYALKAAKEEGLDEAEVKKIFEANKGKSLSAIAAALIAWAKSLGKEEFAEAILKKYEELKEEINKKMTAFIKSLE
B9: traf2_out_1_158_921 (protein)
chain: DTKRKLMLGVVKLITQDAVDSARENGDEETAEALRRFGEEVIKIVEELLIEKNESVEKVIEAIEKLTEEAMKELDPETAEAVRRMGRQIISGLRQVDKLM
B10: traf2_out_20_3_2096 (protein)
chain: EELKKELEKALEEAEKLIKEAIKLADEETAKKLKELLKKLKEAKELPLDDQLVELSEVRRELLELAEKAKKEGKEELAKILEEAADKINRAMNLAYKIIE
B11: traf2_out_18_167_1841 (protein)
chain: EEEKRKRREELMDRLVDLSEVKRAARRALLALETDPSAVPAELAALEEAAKKVPELQPLVDAAKAAYAAGDREGLRAELEALIAEAQKLMNEVMKELEAL
B12: traf2_out_20_3_2207 (protein)
chain: SELEEELEKELEKAIKLLEEAKKLADPETAKVLDELIKRLKESRKLSYEDRLVVLSEIRAEVLRLAQEARAAGDEELAKVLEEAAEAIQRAMNLVYKIIE
B13: traf2_out_11_104_654 (protein)
chain: LTREQAREFNDFAMEARDRAKEIARETAEELRRRGHEEEAARVEAALNDPGAGISTFRNLLEELLPQLDEESQKVAREAIERLRELQKEVSDKLNELLAK
B14: traf2_out_17_162_1485 (protein)
chain: AALEAKLKALQAELKALQKKLAELEKKLENLDKLSKEELTDLLVEVSELKRKARELAVQLEELQKQTGKPELKTLIQEARDLAEKLQKIANIIYKKLEEK
B15: traf2_out_17_162_1639 (protein)
chain: SEIERRLEELERRLEELERRARELEELAKRVEELSREELSDLIVEASEVIREARELIQELEELKDELDPERYEELTRRAEEIIRRAQRVAQRFLDALEAK
B16: traf2_out_1_27_996 (protein)
chain: SDEEFRARLQRLDREIAAADPETALRLVAEGMREAIERGLGDAGILAIIAVSSVSDPELAERILEVAREVMEEEGVSEEDIERILERARNEKRRLDEALA
B17: traf2_out_20_3_2216 (protein)
chain: EELKKKVLEKLEEIEKLLEEAKPLLKPEDYKELKKLLEEAKKALEEDLTDALVYLSELRRKALRLAQEAKAAGNEKLAELLEKMAELANKAAGLVLKMIE
B18: traf2_out_19_16_1969 (protein)
chain: MKEELEKIKKELEEIEKEVRELEKYFRENKETLTREELADLLVELSELKRKAQEIKEKLETLKGVDEEEKEKLIKRAERIIEEAQRLMNEVVDRYLELLK
B19: traf2_out_11_155_716 (protein)
chain: EKELKLNQEFTDKVSEIADEAEAKLEEIIARVEKEDPEVAAELRAMMEKHKDSGITTKLLEAQRILEKAGYEEEAKEVKELLEEYQKKANEIWQEYEKKL

Target: T1, TRAF2, Q12933
T1 chain: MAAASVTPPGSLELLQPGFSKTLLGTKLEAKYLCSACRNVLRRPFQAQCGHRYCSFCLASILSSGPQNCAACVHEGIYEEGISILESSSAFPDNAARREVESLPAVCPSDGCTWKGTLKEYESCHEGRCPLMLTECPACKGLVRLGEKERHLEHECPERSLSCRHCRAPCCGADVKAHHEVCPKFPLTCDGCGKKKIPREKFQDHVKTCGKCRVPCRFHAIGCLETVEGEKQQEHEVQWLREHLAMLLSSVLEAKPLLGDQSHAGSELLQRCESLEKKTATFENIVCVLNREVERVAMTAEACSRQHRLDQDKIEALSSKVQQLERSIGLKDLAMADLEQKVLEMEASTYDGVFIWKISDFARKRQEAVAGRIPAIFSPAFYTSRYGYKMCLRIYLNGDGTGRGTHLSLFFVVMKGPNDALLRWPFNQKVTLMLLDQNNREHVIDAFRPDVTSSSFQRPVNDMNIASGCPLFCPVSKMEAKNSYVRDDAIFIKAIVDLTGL
Test: median log2 fold change of GCK-ALFA target abundance (FLAG IP / Myc IP barcode read proportion) (log2 ratio); each designed protein is fused to an ALFA-tag nanobody in HEK293 cells to bring the named protein to FLAG-tagged glucokinase (GCK); Myc marks an untargeted standard; higher = target protein stabilised (more abundant)
Details: target protein: 3xFLAG-MCP-GCK-ALFA reporter; HEK293 landing pad (RPLP)
Procedure, shortened: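 The readout is target abundance, the per-binder median log2 ratio of FLAG to Myc barcode read proportions. It came from HEK293 landing-pad cells carrying a recombined ALFA-nanobody-fused binder library, induced with 2 μg mL^−1 doxycycline and transfected with a plasmid for a FLAG-tagged target and a Myc-tagged standard. After 48 h, lysates were immunoprecipitated with anti-FLAG and anti-Myc, and circular RNA barcodes were reverse transcribed, amplified and sequenced. Each barcode needed a proportion of at least 10^−7 in both replicates and each binder at least 3 barcodes per replicate, a pseudocount of 10^−6 was added, and the replicates were pooled.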

B1 and B2 are within 0.2 log units of each other in “median log2 fold change” value: 0.299 for the first, 0.309 for the second.

First: B3
Second: B4
The “median log2 fold change” value of the first is higher: -0.111 for the first, -0.411 for the second.

B5 and B6 are within 0.2 log units of each other in “median log2 fold change” value: 0.213 for the first, 0.181 for the second.

Going from B7 to B8, the “median log2 fold change” value falls from 0.309 to -0.389.

First: B9
Second: B10
The “median log2 fold change” value of the first is lower: -0.41 for the first, 0.177 for the second.

Going from B11 to B12, the “median log2 fold change” value rises from -0.231 to 0.244.

B13 and B14 are within 0.2 log units of each other in “median log2 fold change” value: 0.111 for the first, 0.274 for the second.

B15 and B16 are within 0.2 log units of each other in “median log2 fold change” value: 0.146 for the first, 0.214 for the second.

Going from B17 to B18, the “median log2 fold change” value falls from 0.129 to -0.127.

In the case of B19, the “median log2 fold change” value is reported as 0.427.
